The whole screen tested about 390,000 compounds, of which about 910 (0.23%) were called active. About 5% were inconclusive and are not listed. Calls come from the whole dose curve; as a rule, active = well fitted inhibition curve with a large enough effect; inconclusive = small, poorly fitted or top-dose-only effect; inactive = no such curve, though single readings can be large or run the other way. This is a selection; strong and weak results do not stand in their true shares.
% is set by controls: 0 for no effect and ±100 for the full control effect; potency is the fitted concentration of half-maximal effect.

For the assay, the target named is Ubiquitin carboxyl-terminal hydrolase 1 (Homo sapiens) (UniProt O94782). Kind of assay: Inhibitors of USP1/UAF1: Primary Screen. Note: nearly all actives have a fitted effect of over 60% in size. The following applies: recombinant USP1/UAF1, Ub-Rhodamine cleavage fluorescence; activity change, negative = inhibition: at 57.1 µM (top of the series). The procedure, abridged: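 USP1/UAF1 complex at 1 nM was preincubated with compound for 15 min at room temperature, then Ub-Rho substrate (150nM final) was added. Fluorescence (480/540 nm) was read kinetically, 6 reads every 60 seconds.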
UniProt O94782, sequence (O94782 whole entry, looked up): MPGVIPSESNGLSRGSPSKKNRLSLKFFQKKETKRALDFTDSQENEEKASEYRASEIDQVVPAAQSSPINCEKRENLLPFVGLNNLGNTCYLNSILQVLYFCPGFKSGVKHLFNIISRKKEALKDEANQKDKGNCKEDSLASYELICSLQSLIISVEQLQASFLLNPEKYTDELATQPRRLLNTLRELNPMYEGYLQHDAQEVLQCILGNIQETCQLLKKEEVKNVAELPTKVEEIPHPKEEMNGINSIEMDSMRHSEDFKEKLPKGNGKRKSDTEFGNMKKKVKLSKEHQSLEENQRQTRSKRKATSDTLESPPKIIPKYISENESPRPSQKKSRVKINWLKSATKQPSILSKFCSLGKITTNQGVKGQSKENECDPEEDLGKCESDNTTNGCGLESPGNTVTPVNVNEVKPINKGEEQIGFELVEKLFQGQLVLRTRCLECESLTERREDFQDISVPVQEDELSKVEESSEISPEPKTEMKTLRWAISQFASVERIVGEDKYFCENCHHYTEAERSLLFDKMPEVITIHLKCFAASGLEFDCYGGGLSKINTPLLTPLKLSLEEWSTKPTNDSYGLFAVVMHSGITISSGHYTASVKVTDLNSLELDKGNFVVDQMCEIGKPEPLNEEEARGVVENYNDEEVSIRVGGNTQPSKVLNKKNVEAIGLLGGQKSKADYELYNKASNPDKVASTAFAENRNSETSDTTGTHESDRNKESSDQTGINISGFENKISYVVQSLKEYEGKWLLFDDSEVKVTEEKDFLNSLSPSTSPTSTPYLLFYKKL
Consider `O=C1Cc2ccccc2Sc2ccc(O)cc21`, for which the “activity change, negative = inhibition” value was inactive: 106%.

`COC(=O)c1ccc(Cn2nnc3c(=O)[nH]c(C4CCCN(S(=O)(=O)c5cccc(Cl)c5)C4)nc32)cc1` (stereo not drawn): the “activity change, negative = inhibition” value is inactive: -6.59%.

For the compound `COc1ccc(NC(=O)Nc2ccc3c(c2)C(=O)N([C@@H](C)CO)C[C@@H](C)[C@@H](CN(C)S(=O)(=O)c2cccs2)O3)cc1`, the “activity change, negative = inhibition” value was inactive: -20.8%.

For `C[C@@H]1COC(=O)[C@H](CC(=O)OC(C)(C)C)C/C=C\C[C@H](CC(=O)N(CCO)Cc2ccccc2)C(=O)N1`, the “activity change, negative = inhibition” value was inactive: -5.06%.

`CCN1C(=O)/C(=C2/Sc3ccccc3N2CC)S/C1=N\c1ncn[nH]1`: the “activity change, negative = inhibition” value was inactive: 142%.

Turning to `CC(C)n1c(O)c(N=Nc2ccc(Cl)nn2)c2ccccc21`, the “activity change, negative = inhibition” value was inactive: 49.3%.

As for `Cc1cccc(NC(=O)c2cc(S(=O)(=O)N3CCC4(CC3)OCCO4)ccc2F)c1`, the “activity change, negative = inhibition” value is inactive: 1.31%.

Turning to `C[C@]12C(=O)N(c3cccc(F)c3)C(=O)N1[C@H]1c3ccccc3OC[C@@H]1[C@H]2c1ccccc1`, the “activity change, negative = inhibition” value was inactive: -28.4%.

Consider `CC(=O)n1cc([C@H]2C=C(C(=O)NCc3ccccc3)O[C@@H](OCc3ccc(CO)cc3)C2)c2ccccc21`, for which the “activity change, negative = inhibition” value is inactive: -24.8%.

As for `COc1cccc(CNC(=O)CCNS(=O)(=O)c2ccc3c(c2)oc(=O)n3C)c1`, the “activity change, negative = inhibition” value is inactive: 9.54%.

With `CCOC(=O)c1[nH]cnc1C(=O)Nc1ccc(F)cc1`, the “activity change, negative = inhibition” value was inactive: -7.17%.

Regarding `O=C(O)CCCN1C(=O)/C(=C/c2ccc(-c3nc4ccccc4s3)o2)SC1=S`, the “activity change, negative = inhibition” value was inactive: -21.8%.

In the case of `CCC1CN(C(=O)N2CCC(C(=O)O)CC2)c2cc(C)ccc2O1` (stereo not drawn), the “activity change, negative = inhibition” value is inactive: 28.2%.

Regarding `CCOC(=O)C1CCCN(C(=O)Cn2ncc3c([nH]c4ccc(C)cc43)c2=O)C1` (stereo not drawn), the “activity change, negative = inhibition” value is inactive: -2.69%.

`COC(C[C@H]1O[C@@H]1C(=O)[C@H](C)OCc1ccccc1)OC`: the “activity change, negative = inhibition” value was inactive: 3.95%.

Consider `C[C@@H]1CN([C@@H](C)CO)C(=O)CCCn2nncc2CO[C@H]1CN(C)C(=O)NC1CCCCC1`, for which the “activity change, negative = inhibition” value is inactive: -20.8%.

Turning to `COc1ccc([C@H]2C[C@@H](O)[C@H](n3cc(COC(=O)c4ccccc4)nn3)CN2C(=O)C2CCCCC2)cc1`, the “activity change, negative = inhibition” value was inactive: -24.9%.

On to `CN1C(=O)/C(=C\c2cc(N=Nc3ccccc3)ccc2O)SC1=S`, for which the “activity change, negative = inhibition” value is inactive: -9.27%.

On to `CC(C)(C)OC(=O)C[C@H]1C/C=C\C[C@H](CC(=O)N[C@H](CO)Cc2ccccc2)C(=O)N2CCC[C@@H]2COC1=O`, for which the “activity change, negative = inhibition” value is inactive: -17.9%.

For the compound `Cc1ccc(NC(=O)C2CC(=O)N(c3ccc(OC(C)C)cc3)C2)cc1` (stereo not drawn), the “activity change, negative = inhibition” value is inactive: 27.2%.

As to `COC(=O)N1C(=O)[C@@](c2ccccc2)(C2CCCCC2)N1C(=O)OC`, the “activity change, negative = inhibition” value is inactive: -9.12%.

`CCc1ccccc1N(C)C(=O)c1ccc2c(=O)n3c(nc2c1)CCCCC3`: the “activity change, negative = inhibition” value is inactive: 38.3%.

For the compound `CC(C)(C)OC(=O)C[C@H]1C/C=C\C[C@@H](CC(=O)N[C@@H](CO)Cc2ccccc2)C(=O)NC[C@@H](c2ccccc2)OC1=O`, the “activity change, negative = inhibition” value was inactive: -22.3%.

Consider `O=C1c2ccccc2-c2onc3ccc(N4CCCC4)c1c23`, for which the Potency was active: 14.1 µM.

For the compound `COc1cc(N=c2ssnc2Cl)c(OC)cc1Cl`, the “activity change, negative = inhibition” value was inactive: -11.6%.

On to `O=C(Nc1cc(F)cc(F)c1)c1ccc(NCCc2ccccc2)c([N+](=O)[O-])c1`, for which the “activity change, negative = inhibition” value is inactive: 41.5%.

In the case of `CCOC(=O)[C@@H]1[C@H]2COc3ccc(Br)cc3[C@H]2N2C(=O)N(c3ccc(C)cc3)C(=O)[C@@]12C`, the “activity change, negative = inhibition” value was inactive: -25.8%.

As for `CCOC(=O)C1CCN(C(=O)Cn2ncc3c([nH]c4ccccc43)c2=O)CC1`, the “activity change, negative = inhibition” value is inactive: -14.2%.

As for `COC(=O)N(C)C[C@@H]1OCc2cnnn2CCCC(=O)N([C@H](C)CO)C[C@H]1C`, the “activity change, negative = inhibition” value was inactive: -16.7%.

For the compound `C[C@H]1CN([C@@H](C)CO)C(=O)CCCn2nncc2CO[C@@H]1CN(C)Cc1ccc(C(=O)O)cc1`, the “activity change, negative = inhibition” value is inactive: -12.8%.

Take `COc1ccccc1N(CC(=O)NCCSCc1ccc(Cl)cc1)S(C)(=O)=O`: the “activity change, negative = inhibition” value is inactive: 5.48%.

Consider `COc1ccc(S(=O)(=O)Nc2ccc3c(c2)OCO3)cc1C(=O)O`, for which the “activity change, negative = inhibition” value is inactive: 27.1%.

For `CC[C@]12CCCN3CCc4c(n(c5ccccc45)[C@](O)(C(=O)OC)C1)[C@@H]32`, the “activity change, negative = inhibition” value was inactive: -20.2%.

Regarding `CC(C)NC[C@@H](O)COc1cccc2ccccc12`, the “activity change, negative = inhibition” value is inactive: 11.3%.

As to `COc1ccc(NC(=O)N(C)C[C@H]2Oc3ccc(NC(=O)CCN4CCOCC4)cc3C(=O)N([C@@H](C)CO)C[C@H]2C)cc1`, the Potency was active: 5.01 µM.

In the case of `COC(=O)c1ccccc1NC1=C/C(=N\S(=O)(=O)c2ccc(C(=O)O)cc2)c2ccccc2C1=O`, the Potency is active: 12.6 µM.

For the compound `OCC[C@@H]1C[C@@H](O)[C@H](O)[C@]2(CCCO2)O1`, the “activity change, negative = inhibition” value was inactive: -24.7%.

For the compound `CC(=O)N1N=C(c2ccccc2)OC1c1ccc([N+](=O)[O-])s1` (stereo not drawn), the Potency was active: 25.1 µM.

As to `O=C(NN=c1c(=O)c2ccccc2c1=O)c1ccccc1`, the Potency was active: 31.6 µM.

`CC(=O)[C@]1(O)Cc2c(O)c3c(c(O)c2[C@@H](O[C@H]2C[C@H](N)[C@H](O)[C@H](C)O2)C1)C(=O)c1ccccc1C3=O`: the Potency is active: 28.2 µM.

Consider `C[C@@H]1CN([C@@H](C)CO)C(=O)CCCn2nncc2CO[C@@H]1CN(C)S(=O)(=O)c1ccccc1C#N`, for which the “activity change, negative = inhibition” value was inactive: -17%.

Turning to `Nc1c(C(=O)NC23CC4CC(CC(C4)C2)C3)sc2nc3c(c(C(F)(F)F)c12)CCC3`, the “activity change, negative = inhibition” value is inactive: 32.3%.

For `Cc1ccc(-c2nc(NC(=O)CSc3ccc4ccccc4n3)ns2)cc1`, the “activity change, negative = inhibition” value was inactive: -19.1%.

The record behind these values is PubChem BioAssay AID743255 (National Center for Advancing Translational Sciences (NCATS), 2014).
